PubChem BioAssay AID1508623 (National Center for Advancing Translational Sciences (NCATS), 2021)
The whole screen tested about 48,000 compounds, of which about 450 (0.94%) were called active. Another 19% or so got no clear call; they are omitted. The call rests on the fitted dose curve; in most records, active means well fitted inhibition curve with a large enough effect; inconclusive means small, poorly fitted or top-dose-only effect; inactive means no such curve, though single readings can be large or run the other way. This is one part of the list.

test: Primary qHTS for Identification of Small Molecule Inhibitors of Huntingtin Promoter Activity; details: HEK293 HTT promoter firefly luciferase reporter (activity 0% = vehicle and -100% = no light), 24 h; series mostly up to 57.5 µM; activity change, negative = inhibition: at the top concentration; further: nearly all actives have a fitted effect of over 50% in size
Procedure, shortened: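 HEK293 cells carrying firefly luciferase reporters were seeded at 2,500 per well in Opti-MEM and cultured for 24 h. They were then treated with compounds at up to 57.5 uM final for 24 h at 37 degrees C before Dual-Glo luminescence readout.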

| SMILES | activity change, negative = inhibition |
| --- | --- |
| COc1ccc(CNC(=O)Cc2c(C(=O)O)c(C)cn2C)cc1 | inactive: -10.3% |
| Cc1ncc([N+](=O)[O-])n1CC(C)O (stereo not drawn) | inactive: -4.22% |
| O=C(NCc1ccc(F)cc1Cl)c1cc(=O)[nH]c2ccc(S(=O)(=O)N3CCCCC3)cc12 | inactive: -14.1% |
| COc1ccc(-c2nc3scc(CCNS(=O)(=O)c4ccc5c(c4)OCCO5)n3n2)cc1OC | inactive: 8.8% |
| Cc1c(-c2ccccc2)c(=O)oc2ccc(OC(=O)N3CCOCC3)cc12 | inactive: -37.2% |
| CCOc1ccc(C(=O)Nc2c(C(=O)Nc3ccccc3OC)oc3ccccc23)cc1OCC | inactive: -1.36% |
| Cc1cc(C)cc(OCCSc2nc3ccc(NC(=O)c4cccs4)cc3s2)c1 | inactive: -18.9% |
| C/C=C(/C(=C/C)c1ccc(O)cc1)c1ccc(O)cc1 | inactive: -13.2% |
| CCOc1ccc(NC(=O)CSC2=Nc3ccccc3C3=NC(CC(=O)NCc4cccs4)C(=O)N23)cc1 (stereo not drawn) | inactive: -19% |
| COc1cc(-c2cc(OC)c3c(C)oc(C)c3c(=O)c2)ccc1OC(=O)c1ccc(C)cc1 | inactive: 1.7% |
| O=C(CSc1n[nH]c(-c2ccccc2Cl)n1)NCCCc1ccccc1 | inactive: 0.371% |
| Cc1ccc(-c2cn3c(n2)sc2cc(C(=O)NCCCN4CCCCCC4)ccc23)cc1 | inactive: 3.13% |
| CC(CCc1ccccc1)NC(=O)Cn1c(=O)nc(-c2ccccc2)c2cc(Cl)ccc21 (stereo not drawn) | inactive: 8.28% |
| CCc1ccc2oc(C(=O)N(Cc3ccc(N(C)C)cc3)Cc3ccco3)c(C)c2c1 | inactive: -27.1% |
| O=C1c2ccccc2-c2onc3c(N4CCN(C5CCCCC5)CC4)cc(NCCO)c1c23 | inactive: -6.95% |
| O=C(O)c1ccccc1OP(=O)(O)O | inactive: 9.24% |
| CC(=O)c1cccc(NC(=O)C2CCN(c3ncnc4c3nc3n4CCCCC3)CC2)c1 | inactive: -22.2% |
| CCn1ccc2cc(S(=O)(=O)N3CCCN(C(=O)Nc4ccccc4F)CC3)ccc21 | inactive: -20.3% |
| O=C(COC(=O)c1cc(-c2cccs2)nc2ccccc12)c1ccc(F)cc1 | inactive: -8.67% [at 11.5 µM] |
| O=C(CSc1nnc(-c2ccc3c(c2)OCO3)o1)Oc1ccccc1 | inactive: -15.9% |
| O=C(Cn1c(=O)n(Cc2nc(-c3ccccc3)no2)c(=O)c2cc3c(cc21)OCO3)Nc1ccccc1 | inactive: -5.75% |
| CCOc1ccc(-n2c(SCC(=O)Nc3cc(C)ccc3C)nc3c([nH]c4ccccc43)c2=O)cc1 | inactive: -6.75% |
| CCC(C)n1c(=O)c2sccc2n2c(CCCC(=O)N3CCN(c4ccccc4)CC3)nnc12 (stereo not drawn) | inactive: -20.7% |
| COc1cccc(Cc2nc3ccccc3nc2SCC(=O)Nc2cccc(C)c2)c1 | inactive: -2.64% |

| SMILES | activity change, negative = inhibition |
| --- | --- |
| Cc1ccc(Cn2cc(S(=O)(=O)c3cccc(C)c3)c(=O)c3cc(F)c(N4CCOCC4)cc32)cc1 | inactive: -29.7% |
| COc1ccc(CNC(=O)c2sc3nc4n(c(=O)c3c2C)CCCC4)cc1 | inactive: 37.1% |
| O=C(Cc1ccccc1)Nc1sc2c(c1C(=O)Nc1ccccc1Cl)CCCCC2 | inactive: -13.3% |
| COc1ccc2cc([C@H](C)C(=O)O)ccc2c1 | inactive |
| CC(C)c1ccc(NC(=O)CSC2=Nc3ccccc3C3=NC(CCC(=O)NC4CCCCC4)C(=O)N23)cc1 (stereo not drawn) | inactive: -6.53% |
| Cc1cccc(Nc2ncnc3onc(-c4ccc(Cl)cc4)c23)c1C | inactive: -18.2% |
| Cc1ccc2oc3c(c(=O)c2c1)C(c1ccc(O)cc1)N(CCCN(C)C)C3=O (stereo not drawn) | inactive: -12.7% |
| Cc1ccc(-n2c(=O)c3cccnc3n2CC(=O)NCc2ccc(Cl)cc2)cc1 | inactive: -24.8% |
| Cc1cc(F)ccc1NC(=O)C(c1ccccc1)N1Cc2ccccc2C1=O (stereo not drawn) | inactive: -13.1% |
| COC(=O)c1ccc([C@@H]2Nc3c(OC)ccc(C)c3[C@@H]3C=CC[C@@H]32)cc1 | inactive: -25.5% |
| Nc1c(C(=O)Nc2ccc(F)cc2)sc2nc(-c3cccs3)cc(C(F)(F)F)c12 | inactive: -27.2% |
| COc1ccc(C(=O)Nc2cccc(C(=O)OCc3cc(=O)n4nc(C5CC5)sc4n3)c2)cc1 | inactive: -30.3% |
| CC1N=C2c3ccccc3N=C(SCC(=O)NCCc3ccc(Cl)cc3)N2C1=O (stereo not drawn) | inactive: -6.15% |
| O=C(CCS(=O)(=O)c1cc2c(cc1Cl)NC(=O)CO2)NCc1ccc(Cl)cc1 | inactive: -16.3% |
| O=c1cc(-c2ccccc2)c2ccc3c(c2o1)CN(Cc1cccc(Cl)c1)CO3 | inactive: -22.6% |
| CCOc1ccc(CC(=O)Nc2cccc(-c3nc4cccnc4s3)c2C)cc1 | inactive: -10.9% |
| Cc1ccccc1NC(=O)Cn1c(=O)n(CCCC(=O)NCc2ccc3c(c2)OCO3)c(=O)c2ccccc21 | inactive: -2.66% |
| COc1ccc2[nH]cc(CCN=C(NC(=O)c3ccccc3F)Nc3nc(C)cc(C)n3)c2c1 | inactive: -28.6% |
| COc1ccc(Cl)cc1NC(=O)c1c(NCc2ccc(C)o2)sc2c1CCC(C)C2 (stereo not drawn) | inactive: -19.5% |
| C=C(C)CSc1nc2sc3c(c2c(=O)n1Cc1ccccc1)CC(C)(CC)OC3 (stereo not drawn) | inactive: -9.73% |
| Cc1c(C(=O)Nc2ccccc2Br)oc2ccc(S(=O)(=O)N3CCCCCC3)cc12 | inactive: -11.6% |
| CCC(C)NC(=O)CN1C(=O)c2cccnc2Sc2ccccc21 (stereo not drawn) | inactive: 4.73% |
| Cc1ccc(CN2C(=O)C(O)(c3c(C)[nH]c4ccccc34)c3ccccc32)cc1 (stereo not drawn) | inactive: -15.3% |
| COc1ccc(NC(=O)C2CCC(CNS(=O)(=O)c3cccc4nsnc34)CC2)cc1OC (stereo not drawn) | inactive: -19.5% [at 11.5 µM] |
